Experimental data published in PubChem BioAssay AID1345083 (National Center for Advancing Translational Sciences (NCATS), 2018).
Among all 94,000 compounds or so, about 6,200 (6.6%) were called active. The shares of active, inactive and inconclusive entries below differ from those in the screen. Calls come from the whole dose curve; as a rule, active = well fitted inhibition curve with a large enough effect; inconclusive = small, poorly fitted or top-dose-only effect; inactive = flat fitted curve, though single readings scatter. Potencies of inconclusive entries are doubtful fits and often do not repeat.

test: Cytotoxic Profiling in HEK 293 Cell Line of Diverse Libraries Using Quantitative High-Throughput Screening; settings: HEK 293 viability, ATP luminescence (CellTiter-Glo), 48-72 h; activity change, negative = cytotoxicity: at 115 µM (top of the series) unless noted; series mostly up to 115 µM; note: nearly all actives have a fitted effect of over 60% in size
Summary of the method: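 Cells seeded first (HEK 293, 250 cells/well), then compound added by pintool. Incubation ran 48 or 72 hr at 37 degree Celsius. CellTiter-Glo was added and luminescence imaged after 10 min at room temperature.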
% is set by controls: 0 for no effect and ±100 for the full control effect; potency is the fitted concentration of half-maximal effect; tags give direction and shape of the fitted curve.

Row | SMILES | Potency | activity change, negative = cytotoxicity | outcome
1 | Clc1ccc(CNC[C@H]2Cn3c(-c4ccccc4)cnc3CO2)cc1 | active: 100 µM | – | –
2 | COCCOCc1nc(C2CCN(C(=O)NCC(C)C)CC2)no1 | – | inactive: 4.64% | –
3 | O=C(NCCc1ccccc1)c1ccc2nnc(-c3cc[nH]c3)n2c1 | inconclusive: 39.8 µM [inhibitor, partial curve] | – | –
4 | CC(C)NC(=O)c1ccccc1OCC1CCCN(Cc2nccs2)C1 (centres undefined) | inconclusive: 79.4 µM [inhibitor, partial curve, poor fit] | – | –
5 | COCCn1c(=O)c(C(=O)N2CCN(C(=O)c3ccccc3F)CC2)nc2cccnc21 | – | inactive: -0.481% | –
6 | COCCCNC(=O)c1cc(-c2cccnc2)nc2c1cnn2C | inconclusive: 79.4 µM [inhibitor, partial curve, poor fit] | – | –
7 | Cc1nc2ccccc2n1CC(=O)N[C@@H]1COCC[C@@H]1OCC1CC1 | – | inactive: -3.37% | –
8 | CNC(=O)c1ccc(N2CC3CC(C2)[C@H]2CCCC(=O)N2C3)nc1 (some centres undefined) | inconclusive: 89.1 µM [inhibitor, single point] | – | –
9 | O=C(c1ccc(Cl)cc1)N1CCC(n2cnnc2-c2ccccc2)CC1 | – | inactive: 3.69% | –
10 | CN1Cc2nc(-c3cc(F)cc(F)c3)ccc2OCC1=O | – | inactive: -26.9% [at 230 µM] | –
11 | CNS(=O)(=O)c1ccc(CCC(=O)N2CC[C@H]3CC[C@@H](C2)N3)cc1 | inconclusive: 79.4 µM [inhibitor, partial curve, poor fit] | – | –
12 | O=C(c1cn(CCC2CCCCN2Cc2cccnc2)nn1)N1CCOCC1 (centres undefined) | – | inactive: -4.02% | –
13 | COc1cccc(CN2CC3(C2)C(=O)N(Cc2cccc(Cl)c2)C(=O)[C@@H]2C[C@@H](O)CN23)c1 | – | inactive: -16.7% | –
14 | CCc1nc(-c2c3n(c(=O)n(CC(=O)NC4CCCCC4)c2=O)CCCC3)no1 | – | inactive: 4.44% | –
15 | O=C(NCc1ccc2c(c1)OCO2)c1ccc2nnc(-c3ccc(C(F)(F)F)cc3)n2c1 | inconclusive: 79.4 µM [inhibitor, single point] | – | –
16 | CN(C)CCN(C)C(=O)c1ccc2c(c1)NC(C)(COc1ccc3[nH]ccc3c1)CO2 (centres undefined) | active: 112 µM | – | –
17 | CSc1nccc(N2CCC(c3nccn3Cc3cccnc3)CC2)n1 | inconclusive: 50.1 µM [inhibitor, partial curve, poor fit] | – | –
18 | CC(=O)NCC1Cn2cccc2CN1Cc1ccccc1 (centres undefined) | inconclusive: 50.1 µM [inhibitor, partial curve, poor fit] | – | –
19 | O=C(C1CC(=O)N(c2n[nH]c3ccccc23)C1)N1CCC(c2noc3cc(F)ccc23)CC1 (centres undefined) | active: 12.6 µM | – | –
20 | COCCN[C@@H]1C[C@@H]2c3[nH]c4ccccc4c3C[C@@H](C(=O)OC)N2[C@H](c2ccc(C(F)(F)F)cc2)C1 | active: 35.5 µM | – | –
21 | O=C(NCCc1ccc(Cl)cc1)c1ccc2nnc(-c3ccc(Cl)cc3Cl)n2c1 | inconclusive: 56.2 µM [inhibitor, partial curve, poor fit] | – | –
22 | COc1ccc(C2=NOC3(CCCN([S+](=O)([O-])c4cccs4)C3)C2)cc1 (centres undefined) | inconclusive: 79.4 µM [inhibitor, partial curve] | – | –

Row | SMILES | Potency | activity change, negative = cytotoxicity | outcome
23 | CN(C)C(=O)NC1CCN(c2nccc(Nc3ccccc3F)n2)CC1 | inconclusive: 56.2 µM [inhibitor, partial curve, poor fit] | – | –
24 | CC(C)S(=O)(=O)c1ncc(CN(C)Cc2ccsc2)n1CCc1ccccc1 | inconclusive: 50.1 µM [inhibitor, partial curve, poor fit] | – | –
25 | COc1ccc(Cn2c(=O)c(C(=O)N3CCOCC3)nc3cccnc32)cc1 | – | inactive: -9.55% | –
26 | CCOC(=O)[C@@H]1CN(C(=O)OCC)[C@H]2c3ccccc3O[C@@H]12 | – | inactive: -18.4% | –
27 | COc1ccc(-c2cc(C(=O)NC3CCNCC3)c3c(C4CCCN4)noc3n2)cc1 (centres undefined) | inconclusive: 89.1 µM [inhibitor, single point] | – | –
28 | CN(C(=O)[C@@H]1C[C@@H](c2ccc(F)cc2)N([S+](=O)([O-])c2ccccc2)C1)c1cccnc1 | inconclusive: 100 µM [inhibitor, partial curve, poor fit] | – | –
29 | O=C(c1ccc2c(c1)OCO2)N1CCC2(CC1)CC(c1cccnc1)=NO2 | inconclusive: 89.1 µM [inhibitor, single point] | – | –
30 | CS(=O)(=O)N1CC2(CCCN2Cc2ccc(Cl)cc2)Cc2ccccc21 (centres undefined) | inconclusive: 50.1 µM [inhibitor, partial curve, poor fit] | – | –
31 | O=C(C1CCN(Cc2ccccc2-c2ccccc2F)CC1)N1CCC(Cc2ccccc2)CC1 | active: 35.5 µM | – | –
32 | CC(C)c1noc(-c2cn(C3CCCN(C(=O)c4ccc(Cl)s4)C3)nn2)n1 (centres undefined) | inconclusive: 70.8 µM [inhibitor, single point] | – | –
33 | O=C(c1ccsc1)N1CCC(N2C(=O)C(O)C23CCCCC3)CC1 (centres undefined) | – | inactive: 1.78% | –
34 | Cc1nc(NC(=O)C2CC(=O)N(c3n[nH]c4cc(Br)ccc34)C2)sc1C (centres undefined) | inconclusive: 100 µM [inhibitor, single point] | – | –
35 | CCc1nc(-c2c3n(c(=O)n(Cc4ccc(F)c(F)c4)c2=O)CCCC3)no1 | – | inactive: 1.68% | –
36 | Cc1cc(C)cc(C(=O)N2CCCC(n3cc(-c4noc(C)n4)nn3)C2)c1 (centres undefined) | – | inactive: 15.2% | –
37 | COc1cccc(-c2cnc([C@@H]3COCCN3Cc3ccc(NC(C)=O)cc3)[nH]2)c1 | – | inactive: -0.316% [at 172 µM] | –
38 | O=C(NCc1ccc(F)cc1)C1CCN(c2cnn(Cc3ccccc3)c(=O)c2)C1 (centres undefined) | inconclusive: 44.7 µM [inhibitor, partial curve] | – | –
39 | COCCN1Cc2ccccc2N(CC(O)COc2ccccc2)CCC1=O (centres undefined) | inconclusive: 79.4 µM [inhibitor, single point] | – | –
40 | COc1ccccc1-n1c(=O)c(C(=O)NCc2cccs2)nc2cccnc21 | – | inactive: 0.225% | –
41 | O=C(NCCNC(=O)C1CCCC1)c1cccc(-c2ccsc2)c1 | active: 79.4 µM | – | –
42 | Cn1ncc2c(C(=O)NCc3ccc(F)cc3)cc(-c3ccc([S+](C)(=O)[O-])cc3)nc21 | inconclusive: 14.1 µM [inhibitor, full curve] | – | –
43 | COCCNC(=O)c1ccc2nnc(-c3cccc([S+](C)(=O)[O-])c3)n2c1 | – | – | inactive
44 | O=C(Nc1ccc(F)cc1)N1CCC(Oc2ncccc2C(=O)N2CCOCC2)C1 (centres undefined) | inconclusive: 100 µM [inhibitor, partial curve, poor fit] | – | –
